In experiment [1] the test system is NCI-H322M. The following applies: for Mean Optical Densities / Percent Growth: NCI-H322M.
For experiment [2], the system named is NCI-H322M. Briefly: cells. Conditions: Homo sapiens.

Like-named read-outs stand apart in the source and are kept apart here. Bounds are passed on as bounds.

With `CC(C)c1cnn2c(NCc3ccccc3)cc(N[C@@H](CO)[C@H](O)CO)nc12` [ICEC0318, (3S)-3-(7-(Benzylamino)-3-isopropylpyrazolo[1,5-a]pyrimidin-5-ylamino)butane-1,2,4-triol], in the experiment on NCI-H322M [1] (NCI-H322M (Non-Small Cell Lung Cancer)), the TGI was >1.00E−4. Further, the “Mean Optical Densities” value with NCI-H322M [1] (log10 concentration −4.0) is on record as 0.893; in the experiment on NCI-H322M [1] (log10 concentration −5.0), 0.941; in the experiment on NCI-H322M [1] (log10 concentration −6.0) it was 0.927; in the experiment on NCI-H322M [1] (log10 concentration −7.0), 1.663; in the experiment with NCI-H322M [1] (log10 concentration −8.0), 1.904. Moreover, the “Percent Growth” value is reported as 18% in the experiment on NCI-H322M [1] (log10 concentration −4.0); 22% with NCI-H322M [1] (log10 concentration −5.0); 21% in the experiment with NCI-H322M [1] (log10 concentration −6.0); 87% with NCI-H322M [1] (log10 concentration −7.0); 109% in the experiment with NCI-H322M [1] (log10 concentration −8.0). In addition, the GI50 (commonly the concentration giving 50% growth inhibition) in the experiment on NCI-H322M [2] turned out to be 0.361 µM. The CC50 with NCI-H322M [2] (read-out: LC50) was > 100 µM.

The values above are taken from patent publication US8067424B2, “Selective inhibitors for cyclin-dependent kinases” (Emory University, priority 2007, dated 2011).
